Measurements from patent US11618753B2 (priority 2018, dated 2023).

test system: MLKL phosphorylation, HT29-L23 human colorectal adenocarcinoma cells; experiment: cells; conditions: read-out: pMLKL HCS Cell Assay (IC50, uM)

Structure (SMILES)	IC50
COc1ncc(-c2cc(C(F)(F)F)c3c(N)ncnn23)cc1C(=O)NC1CN(CC2(C)COC2)CC1F (racemic) [Example 200, 5-[4-amino-5-(trifluoromethyl)pyrrolo[2,1-f][1,2,4]triazin-7-yl]-N-{4-fluoro-1-[(3-methyloxetan-3-yl)methyl]pyrrolidin-3-yl}-2-methoxypyridine-3-carboxamide]	0.316 µM
COc1ncc(-c2cc(C(F)(F)F)c3c(N)ncnn23)cc1C(=O)NC1CN(Cc2nc3ccccc3o2)CC1F (racemic) [Example 201, 5-[4-amino-5-(trifluoromethyl)pyrrolo[2,1-f][1,2,4]triazin-7-yl]-N-{1-[(1,3-benzoxazol-2-yl)methyl]-4-fluoropyrrolidin-3-yl}-2-methoxypyridine-3-carboxamide]	0.016 µM
COc1ncc(-c2cc(C(F)(F)F)c3c(N)ncnn23)cc1C(=O)NC1CN(Cc2ccnc3ccccc23)CC1F (racemic) [Example 202, 5-[4-amino-5-(trifluoromethyl)pyrrolo[2,1-f][1,2,4]triazin-7-yl]-N-{4-fluoro-1-[(quinolin-4-yl)methyl]pyrrolidin-3-yl}-2-methoxypyridine-3-carboxamide]	0.135 µM
COc1ncc(-c2cc(C(F)(F)F)c3c(N)ncnn23)cc1C(=O)NC1CN(Cc2cccnc2)CC1F (racemic) [Example 203, 5-[4-amino-5-(trifluoromethyl)pyrrolo[2,1-f][1,2,4]triazin-7-yl]-N-{4-fluoro-1-[(pyridin-3-yl)methyl]pyrrolidin-3-yl}-2-methoxypyridine-3-carboxamide]	0.014 µM
COc1ncc(-c2cc(C(F)(F)F)c3c(N)ncnn23)cc1C(=O)NC1CN(Cc2cccc(C(F)(F)F)n2)CC1F (racemic) [Example 204, 5-[4-amino-5-(trifluoromethyl)pyrrolo[2,1-f][1,2,4]triazin-7-yl]-N-(4-fluoro-1-{[6-(trifluoromethyl)pyridin-2-yl]methyl}pyrrolidin-3-yl)-2-methoxypyridine-3-carboxamide]	0.218 µM
COc1ncc(-c2cc(C(F)(F)F)c3c(N)ncnn23)cc1C(=O)NC1CN(Cc2cccc(C)n2)CC1F (racemic) [Example 205, 5-[4-amino-5-(trifluoromethyl)pyrrolo[2,1-f][1,2,4]triazin-7-yl]-N-{4-fluoro-1-[(6-methylpyridin-2-yl)methyl]pyrrolidin-3-yl}-2-methoxypyridine-3-carboxamide]	0.022 µM
COc1ncc(-c2cc(C(F)(F)F)c3c(N)ncnn23)cc1C(=O)NC1CN(Cc2cscn2)CC1F (racemic) [Example 206, 5-[4-amino-5-(trifluoromethyl)pyrrolo[2,1-f][1,2,4]triazin-7-yl]-N-{4-fluoro-1-[(1,3-thiazol-4-yl)methyl]pyrrolidin-3-yl}-2-methoxypyridine-3-carboxamide]	0.021 µM
COc1ncc(-c2cc(C(F)(F)F)c3c(N)ncnn23)cc1C(=O)NC1CN(Cc2nnc(C3CC3)s2)CC1F (racemic) [Example 207, 5-[4-amino-5-(trifluoromethyl)pyrrolo[2,1-f][1,2,4]triazin-7-yl]-N-{1-[(5-cyclopropyl-1,3,4-thiadiazol-2-yl)methyl]-4-fluoropyrrolidin-3-yl}-2-methoxypyridine-3-carboxamide]	0.144 µM
COc1ncc(-c2cc(C(F)(F)F)c3c(N)ncnn23)cc1C(=O)NC1CN(Cc2c(C)noc2C)CC1F (racemic) [Example 209, 5-[4-amino-5-(trifluoromethyl)pyrrolo[2,1-f][1,2,4]triazin-7-yl]-N-{1-[(3,5-dimethyl-1,2-oxazol-4-yl)methyl]-4-fluoropyrrolidin-3-yl}-2-methoxypyridine-3-carboxamide]	0.181 µM
COc1ncc(-c2cc(C(F)(F)F)c3c(N)ncnn23)cc1C(=O)NC1CN(Cc2ccccn2)CC1F (racemic) [Example 210, 5-[4-amino-5-(trifluoromethyl)pyrrolo[2,1-f][1,2,4]triazin-7-yl]-N-{4-fluoro-1-[(pyridin-2-yl)methyl]pyrrolidin-3-yl}-2-methoxypyridine-3-carboxamide]	0.09 µM
COc1ncc(-c2cc(C(F)(F)F)c3c(N)ncnn23)cc1C(=O)NC1CN(Cc2ccc(F)c(F)c2)CC1F (racemic) [Example 211, 5-[4-amino-5-(trifluoromethyl)pyrrolo[2,1-f][1,2,4]triazin-7-yl]-N-{1-[(3,4-difluorophenyl)methyl]-4-fluoropyrrolidin-3-yl}-2-methoxypyridine-3-carboxamide]	0.0062 µM
COc1ncc(-c2cc(C(F)(F)F)c3c(N)ncnn23)cc1C(=O)NC1CN(Cc2nnnn2C2CC2)CC1F (racemic) [Example 212, 5-[4-amino-5-(trifluoromethyl)pyrrolo[2,1-f][1,2,4]triazin-7-yl]-N-{1-[(1-cyclopropyl-1H-1,2,3,4-tetrazol-5-yl)methyl]-4-fluoropyrrolidin-3-yl}-2-methoxypyridine-3-carboxamide]	0.479 µM
COc1ncc(-c2cc(C(F)(F)F)c3c(N)ncnn23)cc1C(=O)NC1CN(Cc2ccc(F)cc2)CC1F (racemic) [Example 213, 5-[4-amino-5-(trifluoromethyl)pyrrolo[2,1-f][1,2,4]triazin-7-yl]-N-{4-fluoro-1-[(4-fluorophenyl)methyl]pyrrolidin-3-yl}-2-methoxypyridine-3-carboxamide]	0.0023 µM
COc1ncc(-c2cc(C(F)(F)F)c3c(N)ncnn23)cc1C(=O)NC1CN(Cc2ccccc2C#N)CC1F (racemic) [Example 214, 5-[4-amino-5-(trifluoromethyl)pyrrolo[2,1-f][1,2,4]triazin-7-yl]-N-{1-[(2-cyanophenyl)methyl]-4-fluoropyrrolidin-3-yl}-2-methoxypyridine-3-carboxamide]	0.026 µM
COc1ncc(-c2cc(C(F)(F)F)c3c(N)ncnn23)cc1C(=O)NC1CN(Cc2ccc(C(F)(F)F)cc2)CC1F (racemic) [Example 216, 5-[4-amino-5-(trifluoromethyl)pyrrolo[2,1-f][1,2,4]triazin-7-yl]-N-(4-fluoro-1-{[4-(trifluoromethyl)phenyl]methyl}pyrrolidin-3-yl)-2-methoxypyridine-3-carboxamide]	0.051 µM
COc1ncc(-c2cc(C(F)(F)F)c3c(N)ncnn23)cc1C(=O)NC1CN(Cc2ccccc2F)CC1F (racemic) [Example 217, 5-[4-amino-5-(trifluoromethyl)pyrrolo[2,1-f][1,2,4]triazin-7-yl]-N-{4-fluoro-1-[(2-fluorophenyl)methyl]pyrrolidin-3-yl}-2-methoxypyridine-3-carboxamide]	0.0046 µM
CCn1cncc1CN1CC(F)C(NC(=O)c2cc(-c3cc(C(F)(F)F)c4c(N)ncnn34)cnc2OC)C1 (racemic) [Example 220, 5-[4-amino-5-(trifluoromethyl)pyrrolo[2,1-f][1,2,4]triazin-7-yl]-N-{1-[(1-ethyl-1H-imidazol-5-yl)methyl]-4-fluoropyrrolidin-3-yl}-2-methoxypyridine-3-carboxamide]	0.089 µM
COCCn1cncc1CN1CC(F)C(NC(=O)c2cc(-c3cc(C(F)(F)F)c4c(N)ncnn34)cnc2OC)C1 (racemic) [Example 223, 5-[4-amino-5-(trifluoromethyl)pyrrolo[2,1-f][1,2,4]triazin-7-yl]-N-(4-fluoro-1-{[1-(2-methoxyethyl)-1H-imidazol-5-yl]methyl}pyrrolidin-3-yl)-2-methoxypyridine-3-carboxamide]	0.412 µM
